Measurements reported in article PMC13083723 (Patterns, 2026).
Out of some 5,400 compounds screened, about 190 (3.5%) showed an effect of 50% or more. The list shows a part of the results. Non-standard residues stand in square brackets, D forms with d. Residues, ends and D or L forms follow the SMILES beside them. dPhe(4-Cl) = N[C@H](Cc1ccc(Cl)cc1)C(=O)O; d2Nal = N[C@H](Cc1ccc2ccccc2c1)C(=O)O; dCit = NC(=O)NCCC[C@@H](N)C(=O)O; d3Pal = N[C@H](Cc1cccnc1)C(=O)O

These molecules were tested on Vero-E6 (assay: primary screen, phospholipidosis by LipidTOX staining; higher = more effect of the substance). Settings: 10 µM.
Procedure, shortened: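 Drug-induced phospholipidosis detected with HCS LipidTOX Red reagent in Vero-E6 cells. Compounds tested at 10 μM, with amiodarone (10 μM) as positive control and DMSO (0.1 v/v %) as vehicle.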
`Cn1cc(C2=C(c3ccc(Cl)cc3Cl)C(=O)NC2=O)c2ccccc21` showed a result_ITMP of -1.85%. Work on `CN1CCN(C(c2ccccc2)c2ccc(Cl)cc2)CC1` (stereo not drawn) yielded a result_ITMP of 44.4%. Molecule `Cc1cccc(Nc2cc(Cl)nc(SCC(=O)O)n2)c1C` has a result_ITMP of -1.65%. `CCOc1cc2ncc(C#N)c(Nc3ccc(OCc4ccccn4)c(Cl)c3)c2cc1NC(=O)/C=C/CN(C)C` showed a result_ITMP of 0.53%. In the case of `C[C@H](Cc1ccc2c(c1)OC(C(=O)[O-])(C(=O)[O-])O2)NC[C@H](O)c1cccc(Cl)c1`, the result_ITMP is reported as -2.22%. `O=C(N/N=C/c1ccc([N+](=O)[O-])o1)c1ccc(O)cc1` was tested, and the result_ITMP was -0.62%. For `CN(C)C(=S)SSC(=S)N(C)C`, the result_ITMP was -1.49%. Work on `CN(Cc1ccccc1)C(=O)[C@H](Cc1ccc2ccccc2c1)NC(=O)[C@@H]1C[C@@H](O)CN1C(=O)c1cn(C)c2ccccc12` yielded a result_ITMP of -2.14%. Work on `CC(C)(C)NCC(O)CSc1nc(-c2ccc(C(N)=O)s2)cs1` (stereo not drawn) yielded a result_ITMP of -0.68%. `NC(=O)c1ncn([C@@H]2O[C@H](CO)[C@@H](O)[C@H]2O)c1O` gave a result_ITMP of -4.37%. Molecule `Cc1cn([C@@H]2C[C@@H](O)[C@H](CO)O2)c(=O)[nH]c1=O` has a result_ITMP of -4.57%. With `CC(C)C[C@H](CN)CC(=O)O` the result_ITMP was 7.75%. Molecule `COc1cc([C@@H]2c3cc4c(cc3[C@@H](O[C@@H]3O[C@@H]5CO[C@@H](C)O[C@H]5[C@H](O)[C@H]3O)[C@H]3COC(=O)[C@H]23)OCO4)cc(OC)c1OP(=O)(O)O` has a result_ITMP of -6.73%. `COc1cc2c(cc1NS(=O)(=O)c1ccc(Br)cc1C)n(C)c(=O)n2C` was tested, and the result_ITMP was -2.09%. Work on `CC/C(=C(/CC)c1ccc(OP(=O)(O)O)cc1)c1ccc(OP(=O)(O)O)cc1` yielded a result_ITMP of -7.65%. `Cc1cc(NC(=O)C(c2ccccc2)N2CCCc3ccccc32)no1` (stereo not drawn) gave a result_ITMP of -0.17%. For `Oc1ccc([C@@H]2Oc3ccc(O)cc3[C@@H]3CCC[C@@H]32)cc1`, the result_ITMP was -1.91%. In the case of `Cc1cc(-c2nc(C(=O)Nc3cn(C4CCOCC4)nc3C(N)=O)co2)ccn1`, the result_ITMP is reported as -4.19%. In the case of `COc1cccc2c1C(=O)c1c(O)c3c(c(O)c1C2=O)C[C@@](O)(C(=O)CO)C[C@@H]3OC1C[C@H](N2CCO[C@H](OC)C2)C(O)[C@H](C)O1` (stereo partly drawn), the result_ITMP is reported as 0.2%. `CC(C)(O/N=C(\C(=O)N[C@@H]1C(=O)N2C(C(=O)[O-])=C(C[n+]3ccccc3)CS[C@H]12)c1csc(N)n1)C(=O)O` showed a result_ITMP of -4.47%. `C[C@@H](O)[C@H](N)C(=O)O` gave a result_ITMP of 2.14%. `Clc1cccc(Cl)c1N=C1NCCN1` gave a result_ITMP of -9.02%. In the case of `CCC[C@H](NC(=O)/C(C#N)=C/c1cccc(Br)n1)c1ccccc1`, the result_ITMP is reported as -10.4%. `NC(=S)N/N=C/c1ccncc1` showed a result_ITMP of -3.98%. Work on `COC(=O)c1ccc(N2CCN(C)CC2)c(NC(=O)c2cccc(OC)c2)c1` yielded a result_ITMP of 5.57%. `OC[C@H]1O[C@@H](OCCc2ccc(O)cc2)[C@H](O)[C@@H](O)[C@@H]1O` showed a result_ITMP of -4.23%. In the case of `Cc1cc(/C(=C\Nc2ccc(Cl)cc2)C(=O)Nc2ccc(Cl)cc2)on1`, the result_ITMP is reported as 1.46%. `CCCN(CCC)[C@@H]1CCc2c(OC)cccc2[C@@H]1C` gave a result_ITMP of 0.14%. `C[C@H](CCC(=O)NCCS(=O)(=O)O)[C@H]1CC[C@H]2[C@@H]3[C@H](O)C[C@@H]4C[C@H](O)CC[C@]4(C)[C@H]3C[C@H](O)[C@]12C` was tested, and the result_ITMP was -2.23%. In the case of `CC(=O)N[C@H](Cc1ccc2ccccc2c1)C(=O)N[C@H](Cc1ccc(Cl)cc1)C(=O)N[C@H](Cc1cccnc1)C(=O)N[C@@H](CO)C(=O)N[C@@H](Cc1ccc(O)cc1)C(=O)N[C@H](CCCNC(N)=O)C(=O)N[C@@H](CC(C)C)C(=O)N[C@@H](CCCNC(=N)N)C(=O)N1CCC[C@H]1C(=O)N[C@H](C)C(N)=O` (Ac-[d2Nal][dPhe(4-Cl)][d3Pal]SY[dCit]LRP[dA]-NH2), the result_ITMP is reported as -3%. `CNCCC=C1c2ccccc2CCc2ccccc21` gave a result_ITMP of 64.4%. For `CC(C)(C)NCC(O)c1ccccc1Cl` (stereo not drawn), the result_ITMP was -1.18%. With `CC(C)=CCC/C(C)=C/CNCCNC1C2CC3CC(C2)CC1C3` (stereo not drawn) the result_ITMP was 29.2%. For `CCc1c2c(nc3ccc(OC(=O)N4CCC(N5CCCCC5)CC4)cc13)-c1cc3c(c(=O)n1C2)COC(=O)[C@]3(O)CC`, the result_ITMP was -2.58%. Work on `CSCC[C@H](N)C(=O)O` yielded a result_ITMP of 4.52%. With `N=C(N)NCCC(=O)O` the result_ITMP was -4.98%. Work on `C[n+]1ccc(C(=O)NCc2ccccc2)cc1` yielded a result_ITMP of -1%. `C[C@@H]1C[C@H]2[C@@H]3CCC4=CC(=O)C=C[C@]4(C)[C@@]3(Cl)[C@@H](O)C[C@]2(C)[C@@]1(O)C(=O)CCl` was tested, and the result_ITMP was 0.3%. Work on `COC(=O)C1=C(C)NC(C)=C(C(=O)OC/C=C/c2ccccc2)C1c1cccc([N+](=O)[O-])c1` (stereo not drawn) yielded a result_ITMP of 5.42%. With `C[C@H](N)C(=O)O` the result_ITMP was 5.32%. Work on `C=CC(=O)Nc1cccc(Nc2nc(Nc3ccc(NC4CN(CCF)C4)cc3OC)ncc2C(F)(F)F)c1` yielded a result_ITMP of 19.1%. `CCn1cc(C(=O)O)c(=O)c2cc(F)c(N3CCNC(C)C3)c(F)c21` (stereo not drawn) showed a result_ITMP of -1.13%. Work on `CS(=O)(=O)Nc1ccc([N+](=O)[O-])cc1Oc1ccccc1` yielded a result_ITMP of -7.18%. `COc1cc(C)nc(-n2nc(C)cc2OC)n1` showed a result_ITMP of -2.4%. `O=C(O)C1=CCNCC1` showed a result_ITMP of -6.34%. `CC(C)CN(C[C@@H](O)[C@H](Cc1ccccc1)NC(=O)O[C@H]1CCOC1)S(=O)(=O)c1ccc(N)cc1` showed a result_ITMP of 2.75%. Molecule `CCn1c(=O)[nH]c2ccccc21` has a result_ITMP of -2.45%. In the case of `C#CC1(OCC(O)CN2CCN(c3cccc(C(F)(F)F)c3)CC2)CCCCC1` (stereo not drawn), the result_ITMP is reported as 2.6%. `COc1cc2nccc(Oc3ccc(NC(=O)Nc4ccc(F)cc4F)c(F)c3)c2cc1OC` was tested, and the result_ITMP was -1.97%. With `CN1CCN(C2=Nc3ccccc3Sc3ccc(Cl)cc32)CC1` the result_ITMP was 26.7%. In the case of `CNC(=O)c1ccc2c(c1)CCO[C@H]2CCN1CCN(c2ccc(C(N)=O)cc2)CC1`, the result_ITMP is reported as -6.24%. In the case of `CC(=O)OC[C@H]1O[C@@H](n2ccc(=O)[nH]c2=O)[C@H](OC(C)=O)[C@@H]1OC(C)=O`, the result_ITMP is reported as 1.47%. `Cc1cc(C(=O)CN2CCCC2)c(C)n1-c1ccc(F)cc1` was tested, and the result_ITMP was 2.92%. In the case of `CCOC(=O)CCC(=O)O[C@H]1[C@H](O[C@@H]2[C@@H](C)[C@H](O[C@H]3C[C@@](C)(OC)[C@@H](O)[C@H](C)O3)[C@@H](C)C(=O)O[C@H](CC)[C@@](C)(O)[C@H](O)[C@@H](C)C(=O)[C@H](C)C[C@@]2(C)O)O[C@H](C)C[C@@H]1N(C)C`, the result_ITMP is reported as -1.35%. Molecule `COc1cc(NC(=O)c2ccc(-c3ccc(Cl)cc3)o2)cc(OC)c1` has a result_ITMP of 2.29%. Molecule `Nc1ncnc2nc(-c3ccc(N4CCOCC4)nc3)cc(-c3cccc(Br)c3)c12` has a result_ITMP of 0.46%. `N#Cc1ccc(Cn2cncc2CN2CCN(c3cccc(Cl)c3)C(=O)C2)cc1` was tested, and the result_ITMP was -0.37%. Molecule `c1ccc2c(Oc3nc(Nc4ccc(N5CCOCC5)cc4)c4ncn(C5CCCCC5)c4n3)cccc2c1` has a result_ITMP of -11.2%. `O=C(O)C(F)(F)C(F)(F)C(F)(F)C(F)(F)C(F)(F)C(F)(F)C(F)(F)F` was tested, and the result_ITMP was -0.24%. For `FC(F)(F)c1cc(CO[C@H]2CCCN[C@H]2c2ccccc2)cc(C(F)(F)F)c1`, the result_ITMP was 40.1%. `O=[N+]([O-])c1cc(Cl)ccc1S(=O)(=O)c1ccccc1` was tested, and the result_ITMP was -9.73%. `CCOC(=O)c1c(C)[nH]c2ccc3c(c12)CN1CCc2cc(OC)ccc2C1O3` (stereo not drawn) gave a result_ITMP of 7.25%. With `Cc1nnc2ccc(-c3cccc(C(F)(F)F)c3)nn12` the result_ITMP was -4.68%. `COc1cc(N)cn[n+]1-c1ccccc1` was tested, and the result_ITMP was -12.9%. `CC(C)(O)c1ccn2c(-c3ccc(F)c(-c4ccc(F)cc4C#N)c3)cnc2c1F` was tested, and the result_ITMP was 0.44%. In the case of `CC12CCC(C(Br)C1=O)C2(C)C` (stereo not drawn), the result_ITMP is reported as -3.49%. In the case of `O=C(O)c1cc(Oc2ccc([N+](=O)[O-])cc2)cc(Oc2ccc([N+](=O)[O-])cc2)c1`, the result_ITMP is reported as -1.17%. For `C[C@@H]1CN(c2c(F)c(N)c3c(=O)c(C(=O)O)cn(C4CC4)c3c2F)C[C@H](C)N1`, the result_ITMP was 6.29%. For `O=c1n(CC2CO2)c(=O)n(CC2CO2)c(=O)n1CC1CO1` (stereo not drawn), the result_ITMP was -7.71%. For `C[C@@H]1O[C@@H]1P(=O)(O)O`, the result_ITMP was -3.28%. Molecule `Cc1c(F)cccc1NC(=O)Nc1ccc(Cl)c(S(=O)(=O)[C@H]2CCCNC2)c1O` has a result_ITMP of -2.27%. With `COc1ccc2c(c1)CN(C)CC2c1ccc(Cl)c(Cl)c1` (stereo not drawn) the result_ITMP was 12.7%. `Nc1nc2c(c(N3CCNCC3)n1)CCC1=C2[C@@H]2CCCC[C@@H]2O1` showed a result_ITMP of 70.7%. `CCCCCCCCCCC(C)(C)C(=O)Nc1c(OC)cc(OC)cc1OC` showed a result_ITMP of 0.67%. For `C[C@@H](O)[C@H]1C(=O)N2C(C(=O)[O-])=C([C@H]3CCCO3)S[C@H]12`, the result_ITMP was -1.64%. `CCOc1nc2cccc(C(=O)O)c2n1Cc1ccc(-c2ccccc2-c2nc(=O)o[nH]2)cc1` gave a result_ITMP of -0.57%. With `CCn1cc(C(=O)O)c(=O)c2cc(F)c(N3CCN(C)CC3)cc21` the result_ITMP was 5.73%. `O=c1ccn([C@@H]2O[C@H](COP(=O)([O-])OP(=O)([O-])OP(=O)([O-])O)C(O)C2O)c(=O)[nH]1` (stereo partly drawn) showed a result_ITMP of 0.02%. `CC[C@]12CCCN3CCc4c(n(c5ccccc45)C(=O)C1)[C@@H]32` was tested, and the result_ITMP was -3.26%. `C#C[C@]1(O)C=C[C@H]2[C@@H]3CCC4=CC(=O)CC[C@@H]4[C@H]3CC[C@@]21CC` was tested, and the result_ITMP was 0.11%. For `CN1CCc2cccc3c2C1Cc1ccc(O)c(O)c1-3` (stereo not drawn), the result_ITMP was 5.96%. Work on `CC#CCOC(=O)c1c(C)nc2sc3c(c2c1N)CCC(O)C3` (stereo not drawn) yielded a result_ITMP of -2.02%. Molecule `NS(=O)(=O)c1cc(C2(O)NC(=O)c3ccccc32)ccc1Cl` (stereo not drawn) has a result_ITMP of 3.86%. In the case of `COc1cc(OC)cc(-c2ccc3c(-c4ccc(F)cc4)n[nH]c3n2)c1`, the result_ITMP is reported as -1.32%.
